This passage reports binding signal results from PMC9911399, “Two distinct binding modes provide the RNA-binding protein RbFox with extraordinary sequence specificity”.

Where a chain is given by its changes, count along the chain named. The list shows a part of the results.

T1: RBFOX1 RRM (Homo sapiens, UniProt Q9NWB1 109-208)
T1 sequence: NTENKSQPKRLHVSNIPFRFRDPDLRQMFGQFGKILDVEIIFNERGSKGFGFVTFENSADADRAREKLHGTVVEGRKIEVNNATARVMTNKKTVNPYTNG

B1: CCUCAUU (DNA:RNA)
RNA: GGGAGACCGGAAUUCAGAUUGUCCCCUCAUUUUAAAUCCCGUCGUAGCCACCA
DNA 1: CAATCTGAATTCCGGTCTCCC
DNA 2: TGGTGGCTACGACGGGATT
B2: GGUAUAG (DNA:RNA)
RNA: B1 RNA with C25G, C26G, C28A, A29U, U30A, U31G
DNA 1: CAATCTGAATTCCGGTCTCCC
DNA 2: TGGTGGCTACGACGGGATT
B3: AUCUGCA (DNA:RNA)
RNA: GGGAGACCGGAAUUCAGAUUGUCCAUCUGCAUUAAAUCCCGUCGUAGCCACCA
DNA 1: CAATCTGAATTCCGGTCTCCC
DNA 2: TGGTGGCTACGACGGGATT
B4: CGACUUG (DNA:RNA)
RNA: B1 RNA with C26G, U27A, A29U, U31G
DNA 1: CAATCTGAATTCCGGTCTCCC
DNA 2: TGGTGGCTACGACGGGATT
B5: GGCUGGA (DNA:RNA)
RNA: B3 RNA with A25G, U26G, C30G
DNA 1: CAATCTGAATTCCGGTCTCCC
DNA 2: TGGTGGCTACGACGGGATT
B6: CUUAACG (DNA:RNA)
RNA: B1 RNA with C26U, C28A, U30C, U31G
DNA 1: CAATCTGAATTCCGGTCTCCC
DNA 2: TGGTGGCTACGACGGGATT
B7: GUUACAU (DNA:RNA)
RNA: B1 RNA with C25G, C26U, C28A, A29C, U30A
DNA 1: CAATCTGAATTCCGGTCTCCC
DNA 2: TGGTGGCTACGACGGGATT
B8: CUUAAUU (DNA:RNA)
RNA: B1 RNA with C26U, C28A
DNA 1: CAATCTGAATTCCGGTCTCCC
DNA 2: TGGTGGCTACGACGGGATT
B9: GCCAGAC (DNA:RNA)
RNA: B3 RNA with A25G, U26C, U28A, C30A, A31C
DNA 1: CAATCTGAATTCCGGTCTCCC
DNA 2: TGGTGGCTACGACGGGATT
B10: AAUAUCC (DNA:RNA)
RNA: B3 RNA with U26A, C27U, U28A, G29U, A31C
DNA 1: CAATCTGAATTCCGGTCTCCC
DNA 2: TGGTGGCTACGACGGGATT
B11: CUGUUCA (DNA:RNA)
RNA: B3 RNA with A25C, C27G, G29U
DNA 1: CAATCTGAATTCCGGTCTCCC
DNA 2: TGGTGGCTACGACGGGATT
B12: GAUUAGU (DNA:RNA)
RNA: B1 RNA with C25G, C26A, C28U, U30G
DNA 1: CAATCTGAATTCCGGTCTCCC
DNA 2: TGGTGGCTACGACGGGATT
B13: CCAACAG (DNA:RNA)
RNA: B1 RNA with U27A, C28A, A29C, U30A, U31G
DNA 1: CAATCTGAATTCCGGTCTCCC
DNA 2: TGGTGGCTACGACGGGATT
B14: UGACUGA (DNA:RNA)
RNA: B3 RNA with A25U, U26G, C27A, U28C, G29U, C30G
DNA 1: CAATCTGAATTCCGGTCTCCC
DNA 2: TGGTGGCTACGACGGGATT
B15: UUGCGAA (DNA:RNA)
RNA: B3 RNA with A25U, C27G, U28C, C30A
DNA 1: CAATCTGAATTCCGGTCTCCC
DNA 2: TGGTGGCTACGACGGGATT
B16: GUCAUCG (DNA:RNA)
RNA: B3 RNA with A25G, U28A, G29U, A31G
DNA 1: CAATCTGAATTCCGGTCTCCC
DNA 2: TGGTGGCTACGACGGGATT
B17: GAUAAUG (DNA:RNA)
RNA: B1 RNA with C25G, C26A, C28A, U31G
DNA 1: CAATCTGAATTCCGGTCTCCC
DNA 2: TGGTGGCTACGACGGGATT
B18: ACGCGCA (DNA:RNA)
RNA: B3 RNA with U26C, C27G, U28C
DNA 1: CAATCTGAATTCCGGTCTCCC
DNA 2: TGGTGGCTACGACGGGATT
B19: UUAGGGG (DNA:RNA)
RNA: B3 RNA with A25U, C27A, U28G, C30G, A31G
DNA 1: CAATCTGAATTCCGGTCTCCC
DNA 2: TGGTGGCTACGACGGGATT
B20: AACGUCA (DNA:RNA)
RNA: B3 RNA with U26A, U28G, G29U
DNA 1: CAATCTGAATTCCGGTCTCCC
DNA 2: TGGTGGCTACGACGGGATT
B21: UCGAAAC (DNA:RNA)
RNA: B1 RNA with C25U, U27G, C28A, U30A, U31C
DNA 1: CAATCTGAATTCCGGTCTCCC
DNA 2: TGGTGGCTACGACGGGATT
B22: GAGAGCG (DNA:RNA)
RNA: B3 RNA with A25G, U26A, C27G, U28A, A31G
DNA 1: CAATCTGAATTCCGGTCTCCC
DNA 2: TGGTGGCTACGACGGGATT
B23: CCUUUGG (DNA:RNA)
RNA: B1 RNA with C28U, A29U, U30G, U31G
DNA 1: CAATCTGAATTCCGGTCTCCC
DNA 2: TGGTGGCTACGACGGGATT
B24: GACUUCC (DNA:RNA)
RNA: B3 RNA with A25G, U26A, G29U, A31C
DNA 1: CAATCTGAATTCCGGTCTCCC
DNA 2: TGGTGGCTACGACGGGATT
B25: AUAUUGA (DNA:RNA)
RNA: B3 RNA with C27A, G29U, C30G
DNA 1: CAATCTGAATTCCGGTCTCCC
DNA 2: TGGTGGCTACGACGGGATT
B26: GCGGACG (DNA:RNA)
RNA: B1 RNA with C25G, U27G, C28G, U30C, U31G
DNA 1: CAATCTGAATTCCGGTCTCCC
DNA 2: TGGTGGCTACGACGGGATT
B27: UGGCAGU (DNA:RNA)
RNA: B1 RNA with C25U, C26G, U27G, U30G
DNA 1: CAATCTGAATTCCGGTCTCCC
DNA 2: TGGTGGCTACGACGGGATT
B28: CUCUUAA (DNA:RNA)
RNA: B3 RNA with A25C, G29U, C30A
DNA 1: CAATCTGAATTCCGGTCTCCC
DNA 2: TGGTGGCTACGACGGGATT
B29: AGUUAUU (DNA:RNA)
RNA: B1 RNA with C25A, C26G, C28U
DNA 1: CAATCTGAATTCCGGTCTCCC
DNA 2: TGGTGGCTACGACGGGATT
B30: ACAACUA (DNA:RNA)
RNA: B3 RNA with U26C, C27A, U28A, G29C, C30U
DNA 1: CAATCTGAATTCCGGTCTCCC
DNA 2: TGGTGGCTACGACGGGATT
B31: GAACGAA (DNA:RNA)
RNA: B3 RNA with A25G, U26A, C27A, U28C, C30A
DNA 1: CAATCTGAATTCCGGTCTCCC
DNA 2: TGGTGGCTACGACGGGATT

The experiment has as its target T1, RBFOX1 RRM. Kind of experiment: EMSA; HiTS-Eq, 1 nM pool, 10 min; buffer printed only for the single-RNA assays: 10 mM Tris pH 7.5, 150 mM NaCl, 3.4 mM EDTA, 0.001% NP-40, 30 C. Conditions: tags: His6 N-terminal (pET28a); label: 5' 32P. In short, it runs like this:
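Relative association constants, normalised to the cognate motif, were derived by comparing read counts of each RNA species with those of the control reaction. The RNA sequenced was the free fraction, separated by 8% native PAGE after a 10 min equilibration in 50 µL of 1 nM 5′-radiolabelled RNA (7 randomized nucleotides) with increasing concentrations of purified wild-type or mutant RbFox RRM.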
Turning to B1, the binding signal was 0.00384 KA relative to UGCAUGU.

Take B2: the binding signal was 0.00862 KA relative to UGCAUGU.

Turning to B3, the binding signal was 0.0136 KA relative to UGCAUGU.

For B4, the binding signal was 0.0154 KA relative to UGCAUGU.

B5: the binding signal was 0.0107 KA relative to UGCAUGU.

Turning to B6, the binding signal was 0.0044 KA relative to UGCAUGU.

Turning to B7, the binding signal is 0.0045 KA relative to UGCAUGU.

Regarding B8, the binding signal is 0.00683 KA relative to UGCAUGU.

With B9, the binding signal is 0.0114 KA relative to UGCAUGU.

Regarding B10, the binding signal is 0.000265 KA relative to UGCAUGU.

Regarding B11, the binding signal was 0.0121 KA relative to UGCAUGU.

On to B12, for which the binding signal was 0.0115 KA relative to UGCAUGU.

On to B13, for which the binding signal is 0.00295 KA relative to UGCAUGU.

As for B14, the binding signal was 0.0256 KA relative to UGCAUGU.

For B15, the binding signal is 0.0119 KA relative to UGCAUGU.

For the molecule B16, the binding signal was 0.00989 KA relative to UGCAUGU.

Turning to B17, the binding signal is 0.015 KA relative to UGCAUGU.

On to B18, for which the binding signal is 0.0134 KA relative to UGCAUGU.

In the case of B19, the binding signal was 0.0032 KA relative to UGCAUGU.

With B20, the binding signal was 0.00367 KA relative to UGCAUGU.

Take B21: the binding signal was 0.00905 KA relative to UGCAUGU.

Regarding B22, the binding signal is 0.0158 KA relative to UGCAUGU.

In the case of B23, the binding signal was 0.0198 KA relative to UGCAUGU.

Turning to B24, the binding signal was 0.0102 KA relative to UGCAUGU.

Consider B25, for which the binding signal was 0.00736 KA relative to UGCAUGU.

As to B26, the binding signal was 0.0085 KA relative to UGCAUGU.

As to B27, the binding signal is 0.0192 KA relative to UGCAUGU.

In the case of B28, the binding signal is 0.00101 KA relative to UGCAUGU.

With B29, the binding signal is 0.00441 KA relative to UGCAUGU.

On to B30, for which the binding signal was 0.000157 KA relative to UGCAUGU.

Regarding B31, the binding signal was 0.0149 KA relative to UGCAUGU.
